From article PMC4336329 (PLoS ONE, 2015)
Screen size: about 310,000 compounds; about 2,200 (0.71%) showed an effect of 50% or more. The effect is printed as a negative number. The list shows a part of the results.

What follows are compounds tested against human ether-à-go-go-related gene (hERG) potassium channel (human, UniProt Q12809) (assay: primary screen, population patch clamp on CHO cells stably expressing hERG).
human ether-à-go-go-related gene (hERG) potassium channel, sequence (Q12809 whole entry, looked up): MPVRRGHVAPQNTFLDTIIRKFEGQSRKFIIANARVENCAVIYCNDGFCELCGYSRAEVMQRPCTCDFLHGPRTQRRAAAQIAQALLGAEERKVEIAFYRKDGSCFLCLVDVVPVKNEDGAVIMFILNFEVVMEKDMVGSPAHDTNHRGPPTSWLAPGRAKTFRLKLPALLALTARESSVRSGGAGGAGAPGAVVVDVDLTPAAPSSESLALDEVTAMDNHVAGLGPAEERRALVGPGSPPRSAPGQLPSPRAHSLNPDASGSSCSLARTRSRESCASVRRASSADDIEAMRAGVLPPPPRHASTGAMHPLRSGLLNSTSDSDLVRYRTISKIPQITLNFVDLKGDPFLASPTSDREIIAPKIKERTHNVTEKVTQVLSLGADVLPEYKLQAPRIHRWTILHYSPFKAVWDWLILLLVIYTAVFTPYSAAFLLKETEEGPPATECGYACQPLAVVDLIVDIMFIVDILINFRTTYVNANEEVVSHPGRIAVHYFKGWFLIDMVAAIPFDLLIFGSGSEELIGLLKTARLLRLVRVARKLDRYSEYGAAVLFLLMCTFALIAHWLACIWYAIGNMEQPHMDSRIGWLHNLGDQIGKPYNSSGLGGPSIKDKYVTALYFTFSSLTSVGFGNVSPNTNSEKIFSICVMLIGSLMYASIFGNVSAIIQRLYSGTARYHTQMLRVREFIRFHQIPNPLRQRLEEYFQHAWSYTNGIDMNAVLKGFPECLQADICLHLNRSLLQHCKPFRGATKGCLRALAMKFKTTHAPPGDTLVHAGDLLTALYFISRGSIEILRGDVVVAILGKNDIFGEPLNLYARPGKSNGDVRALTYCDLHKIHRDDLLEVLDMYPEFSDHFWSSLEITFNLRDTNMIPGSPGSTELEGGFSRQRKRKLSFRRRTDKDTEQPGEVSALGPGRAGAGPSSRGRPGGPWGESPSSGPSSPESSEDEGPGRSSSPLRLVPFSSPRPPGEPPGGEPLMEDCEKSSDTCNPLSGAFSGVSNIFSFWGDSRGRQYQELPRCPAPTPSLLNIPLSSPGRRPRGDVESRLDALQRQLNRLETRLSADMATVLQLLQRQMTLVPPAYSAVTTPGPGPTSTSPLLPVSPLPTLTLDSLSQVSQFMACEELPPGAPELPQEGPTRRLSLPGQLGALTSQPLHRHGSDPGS

In order of falling “hERG current change (%, negative = inhibition) at 1uM” value:
1. Cc1ccccc1NS(=O)(=O)c1cc(S(C)(=O)=O)ccc1C  18.7%
2. C/C(=N/NC(=O)c1cc(-c2ccc(Br)s2)[nH]n1)c1ccco1  18%
3. COc1ccc(NC(=O)CSc2nc(N)c3cc4c(nc3n2)CC(C)(C)OC4)cc1  14.3%
4. C=CCC1(CC=C)CCCN1C(=O)c1cc(COc2cccc(OC)c2)on1  14%
5. COc1ccc(NC(=O)NC2(C(=O)N3CCOCC3)CCCCC2)cc1  13.7%
6. O=C(CSCc1ccco1)NC1CCCC1  13.6%
7. O=C(CN1C(=O)NC(CCc2ccccc2)C1=O)NC1CC1 (stereo not shown)  13.5%
8. COCCC(=O)N1CCC(n2nccc2NC(=O)CCc2ccccc2)CC1  13.1%
9. COC(=O)c1ccc(/C=C/C(=O)O)cc1  13%
10. Cc1cccc(N2CCN(C(=O)C3CCN(S(=O)(=O)c4c(C)noc4C)CC3)CC2)c1C  12.8%
11. O=C1C2C3CCC(O3)C2C(=O)N1c1cccc(O)c1 (stereo not shown)  12.7%
12. Cc1ccc(S(=O)(=O)CCC(=O)Nc2nc(-c3ccncc3)cs2)cc1  12.1%
13. Cc1cc(C(=O)NNc2ccc(F)cc2)no1  11.8%
14. O=C1N/C(=N\N=C\c2cccs2)SC1Cc1ccc(Cl)c(Cl)c1 (stereo not shown)  11.8%
15. Cc1ccccc1C(=O)NNC(=O)C1CCN(c2ncccn2)CC1  11.8%
16. O=[N+]([O-])c1cccc(-c2noc(-c3cccs3)n2)c1  11.6%
17. NC(=O)c1ccc(N=Nc2c(-c3ccccc3)[nH]n(-c3ccccc3)c2=O)cc1  11.5%
18. CC12CCC(C(=O)N(CC3CO3)C1=O)C2(C)C (stereo not shown)  11%
19. COc1ccc(CN2C(=O)N(c3ccccc3)C(=O)C2CC(=O)Nc2ccccc2)cc1OC (stereo not shown)  11%
20. CCOC(=O)c1ccc(S(=O)(=O)NNC(=O)c2ccc3c(c2)nc(C)n3CC)cc1  11%
21. COc1cccc(OC)c1C(=O)N1CCN(c2ccccn2)CC1  10.8%
22. C=CCOc1ccc(/C=C/C(=O)OCC(=O)NCc2ccco2)cc1  10.3%
23. COc1ccccc1C(=O)NNC(=S)NC(=O)c1cc(OC)c(OC)c(OC)c1  10.2%
24. O=C(c1ccc(-c2nc3ccccc3s2)s1)N1CCOCC1  8.45%
25. CCC(C)n1c(O)c(C=NCc2cccnc2)c(=O)[nH]c1=S (stereo not shown)  8.43%
26. CN(C)c1ccc(C=C2C(=O)OC(C)(C(C)(C)C)OC2=O)cc1 (stereo not shown)  8.32%
27. Cc1ccc(N2CC(C(=O)Nc3cc(C)on3)CC2=O)cc1 (stereo not shown)  8.12%
28. COC(=O)[C@H](CC(C)C)NC(=O)NCc1ccc(Cl)cc1  7.71%
29. O=C1N=C2SCCN2/C1=C\c1c(Cl)cccc1Cl  7.7%
30. Cc1cccc(C(=O)OC2CCCN(C)C2)c1C.Cl (stereo not shown)  7.67%
31. O=C(OCC(O)C(O)COC(=O)c1ccccc1)c1ccccc1 (stereo not shown)  6.91%
32. COC(=O)c1c(-c2ccccc2)csc1NC(=O)CSc1ncnc2sc(C)c(C)c12  5.85%
33. CCn1c(SCC(=O)Nc2cc(F)ccc2C)nnc1-c1ccccc1O  5.8%
34. O=C(Nc1ccc(N2CCOCC2)nc1)c1ccc(C(F)(F)F)cc1  5.74%
35. CCCCn1c(NCCO)nc2ccccc21  5.59%
36. COc1ccc(NC(=O)C(=O)NCCN2CCN(C(=O)c3ccco3)CC2)cc1  5.39%
37. O=C(CSc1nc2ccccc2[nH]1)Nc1ccc2c(c1)OCCO2  4.8%
38. Nn1c(SCC(=O)N2CCCCCC2)nnc1-c1ccco1  3.51%
39. CCOc1ccccc1NC(=O)Nc1cccc(S(N)(=O)=O)c1  3.48%
40. O=P(O)(COc1ccccc1)COc1ccccc1  2.49%
41. Cc1ccc(CNC(=O)CN(c2cccc([N+](=O)[O-])c2)S(=O)(=O)c2ccccc2)cc1  2.27%
42. Cc1ccc(C(=O)N/N=C\c2cccs2)cn1  1.82%
43. COCCCNc1oc(-c2ccccc2F)nc1C#N  0.0132%
44. CN(C)CCn1c(=O)n(Cc2ccco2)c(=O)c2c3c(sc21)CCCCC3  -11.6%
45. CCOC(=O)Cc1csc(NC(=O)CSc2nnc(-c3ccc(OC)cc3)n2C)n1  -13.1%
46. COCCOc1ccc(C(F)(F)F)cc1NC(=O)COC(=O)C1=COCCO1  -22.7%
